This is an account of results in PubChem BioAssay AID1240 (Sanford-Burnham Center for Chemical Genomics, 2008).

SMILES strings stand for the structures. Hit rate of the full screen: of about 50,000 compounds, about 800 (1.6%) showed an effect of 50% or more. The list shows a part of the results.

The assay addresses Bcl-2-like protein 10 (Homo sapiens) (UniProt Q9HD36). In words: Phenotype converters, Bcl-B/TR3 peptide binding displacement, primary biochemical FP (AID 1240).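 Note: 0% = Bcl-B with tracer peptide and DMSO and 100% = tracer peptide lacking Bcl-B.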 The settings on record: GST-Bcl-B / FITC-TR3 peptide fluorescence polarization; stronger effect = higher value; compound at 3.75 mg/L. For orientation: Polarisation of emitted light reports the rotation of a fluorescent probe.
Sequence of UniProt Q9HD36 (Q9HD36 whole entry, looked up): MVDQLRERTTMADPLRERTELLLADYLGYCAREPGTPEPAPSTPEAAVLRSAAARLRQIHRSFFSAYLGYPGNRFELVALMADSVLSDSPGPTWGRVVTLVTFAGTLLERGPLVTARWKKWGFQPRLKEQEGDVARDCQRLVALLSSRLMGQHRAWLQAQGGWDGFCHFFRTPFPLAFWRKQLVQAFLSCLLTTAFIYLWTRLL
For `COC(=O)CP(=O)(c1ccccc1)c1ccccc1`, the displacement stood at 1.6%.
Consider `COC(C)(C)c1cc(-c2cccc3ccccc23)nc(N)n1`, for which the displacement was 0%.
Under `COc1ccc(Cl)cc1C(=O)Nc1cccc(F)c1` stands -4.4%.
To `Cc1ccc([N+](=O)[O-])cc1S(=O)(=O)N1CCOCC1` belongs 5.1%.
Under `O=C(Nc1ccccc1)N1CCN(c2ccccc2)CC1` stands -1.6%; under `CCOc1ccc(NC(=O)C2COc3ccccc3O2)cc1` (stereo not drawn), 4%; under `O=C1/C(=C\Nc2cc(Cl)ccc2O)CCc2ccccc21`, 85.9%.
Take `Cc1ccccc1NC(=S)NC(=O)/C=C/c1ccc(F)cc1`: the displacement is -5%.
Regarding `O=C(NCCCO)C(=O)NCCc1ccccc1`, the displacement came to 15.5%.
To `COc1ccc(Cl)cc1NC(=O)c1ccc(Cl)c(Cl)c1` belongs -3.3%; to `Cc1ccc([N+](=O)[O-])cc1NC(=S)NC(=O)c1ccccc1Cl`, 15.9%.
Regarding `CC1(C)CC(=O)c2sc(NC(=O)c3ccc(C(=O)c4ccccc4)cc3)nc2C1`, the displacement is -20.5%.
To `Cc1cccc(C(=O)Nc2cccc(C(N)=O)c2)c1` belongs -11.6%.
To `CC(=O)Nc1ccccc1NC(=O)COc1ccc2ccccc2c1` belongs -9.4%.
Under `CCNc1ncnc2c1oc1ccccc12` stands 5.3%; under `Cc1cccc(C=Nc2ccc3c(c2)oc2ccccc23)c1O`, -0.6%; under `Cc1ccc(S(=O)(=O)N(Cc2ccccc2)c2ccccc2C(=O)NC2CCCC2)cc1`, -0.9%.
For the compound `Cc1ccc(NC(=O)c2cc3ccccc3o2)c([N+](=O)[O-])c1`, the displacement stood at 4.1%.
To `O=C(N(c1ccc(Cl)cc1)C1C=CS(=O)(=O)C1)C(F)(F)F` (stereo not drawn) belongs 12.8%.
Take `Cc1ccc(-n2[nH]c(C)c(C=O)c2=O)cc1`: the displacement turned out to be 16.7%.
To `CCCC(=O)Nc1nnc(COc2ccccc2)s1` belongs 3.9%.
As to `Cn1c(-c2ccc(S(=O)(=O)O)s2)nc2ccccc21`, the displacement was 5.7%.
`O=C(O)CCC(NC(=O)c1cncc(Br)c1)C(=O)O` (stereo not drawn): the displacement turned out to be 1.8%.
For `NC(=O)COc1ccc(/C=C2\C(=O)NC(=O)N(Cc3ccccc3)C2=O)cc1`, the displacement was 23.2%.
Under `CS(=O)(=O)N(CC(=O)N1CCCC1)c1ccc(Cl)cc1` stands 10.2%; under `COC(=O)C1=CN(CCc2ccccc2)C=C(C(=O)OC)C1c1ccc2c(c1)OCO2`, 3.5%; under `Cc1ccnc(NS(=O)(=O)c2ccc(N)cc2)c1`, -8.1%.
Under `Cc1cccc(C(=O)Nc2cccc(NC(=O)COc3ccccc3Cl)c2)c1` stands 10.7%; under `COc1ccc(Oc2coc3cc(OC(=O)c4ccco4)ccc3c2=O)cc1`, 15.5%; under `N/C(=N\OC(=O)c1ccc(F)cc1)c1ccccc1`, -11.3%.
Regarding `O=C1/C(=C\c2ccco2)CC2CC1C/C(=C/c1ccco1)C2=O`, the displacement came to 9.5%.
Under `Cc1nnc(Nc2ccc(C(=O)Nc3c(Cl)cccc3Cl)cc2)c2ccccc12` stands -3.9%.
Under `CS(=O)(=O)NCCCNc1ccc(C(F)(F)F)cc1[N+](=O)[O-]` stands -0.8%.
Under `O=C(Nc1cc(C(F)(F)F)ccc1N1CCOCC1)Nc1cccc2ccccc12` stands 3.4%; under `COc1cc(/C=N/NC(=O)c2ccncc2)ccc1OC(=O)c1cccs1`, -2.4%; under `O=C(Nc1ccc(O)c(-c2nc3ccccc3s2)c1)c1cc([N+](=O)[O-])ccc1Cl`, 1.6%.
For the compound `Fc1c(F)c(N2CCOCC2)c(F)c(F)c1-c1c(F)c(F)c(N2CCOCC2)c(F)c1F`, the displacement was -2.3%.
As to `CC(O)c1nc2ccccc2n1Cc1ccc2ccccc2c1` (stereo not drawn), the displacement was -6.3%.
To `COc1ccc(OC)c(NC(=O)C2CC(C)=C(C)CC2C(=O)O)c1` (stereo not drawn) belongs 18.1%; to `O=C(N/N=C/c1ccccc1)c1cc(Br)ccc1O`, 7.4%.
Under `COC(=O)c1ccc(NC(=S)NC(=O)/C=C/c2ccc(Br)cc2)cc1` stands 13.2%.
For the compound `NC(=O)c1ccccc1N=Cc1cccc([N+](=O)[O-])c1`, the displacement was -4.7%.
Under `Cc1ccccc1C1Nc2ccccc2NC2=C1C(=O)CC(c1ccccc1)C2` (stereo not drawn) stands -7.1%; under `CC(=O)Nc1ccc2oc(-c3ccc4nc(NC(C)=O)sc4c3)nc2c1`, -4.1%; under `O=C(N/N=C\c1ccc([N+](=O)[O-])o1)c1nc(-c2ccccc2)cc(-c2ccccc2)n1`, 5.8%.
Under `CCOC(=O)c1c(-c2ccccc2)oc2cc(Br)c(OCC(N)=O)cc12` stands 3.3%; under `O=C(NN1C(=O)C2C(C1=O)C1C=CC2C12CC2)c1ccncc1` (stereo not drawn), 16.7%.
Under `CCCn1c(C(O)c2ccc(C)cc2)nc2ccccc21` (stereo not drawn) stands -9.6%; under `O=C(NC(=S)N1CCCCC1)c1ccc(Br)cc1`, -3.1%; under `Cc1cc(-c2ccc(/C=C3\Sc4ccccc4C3=O)o2)cc([N+](=O)[O-])c1C`, -32.2%.
For the compound `O=C(Cc1ccccc1Cl)c1ccc(O)cc1O`, the displacement is -6.4%.
`O=C1/C(=C/c2ccc(Br)o2)Sc2ccccc21`: the displacement stood at 92.7%.
As to `COc1cccc(C2CC(=O)Nc3c2cc(Br)c2ccccc32)c1OC` (stereo not drawn), the displacement is -3.9%.
To `O=C(Nc1cccc2nsnc12)c1cccc(Br)c1` belongs 5.6%; to `O=C1/C(=C\c2cccc(Br)c2)SC(=S)N1CN1CCCCC1`, 10.3%; to `CC(C)CC(=O)N1c2ccccc2NC2=C(C(=O)CC(C)(C)C2)C1c1ccco1` (stereo not drawn), -11.9%.
To `O=C1C(=O)N(c2cccnc2)C(c2ccc(O)cc2)/C1=C(\O)c1ccc(Cl)cc1` (stereo not drawn) belongs -14.2%; to `CCOC(=O)C1=C(C)NC(=S)NC1c1cc(OC)c(OC)c(OC)c1` (stereo not drawn), -5%; to `O=C(N/N=C/c1ccc(/C=N/NC(=O)c2cccc(Cl)c2)cc1)c1cccc(Cl)c1`, -6.5%.
To `Cc1cccc(C)c1OCCOCCN1CCCC1` belongs 2.8%; to `CCC(C)(C)C1CCc2c(sc(NC(=O)c3cccnc3)c2C(N)=O)C1` (stereo not drawn), -2.3%; to `O=C(Nc1ccccc1)Nc1nnc(-c2ccccc2I)s1`, 3.4%.
With `Cc1ccc(C)c(S(=O)(=O)Nc2cc(Br)c(O)c3ccccc23)c1`, the displacement stood at 19.6%.
To `CCC(C)NC(=O)NS(=O)(=O)c1ccccc1Cl` (stereo not drawn) belongs 16.9%.
Under `O=C(Nc1ccccc1Cl)c1ccc(-n2cnnn2)cc1` stands -5.7%; under `O=C(N/N=C/c1c(O)ccc2ccccc12)c1cc(-c2cccs2)[nH]n1`, -27.4%.
For the compound `Cc1cc(OCC(=O)Nc2cccc(I)c2)ccc1Br`, the displacement is -2%.
`O=C1c2ccccc2C(=O)C1(Nc1ccccc1)c1ccc([N+](=O)[O-])cc1`: the displacement is 9.8%.
Under `O=C1/C(=C/c2cccs2)SC(=S)N1c1ccc(F)cc1` stands 12.8%; under `O=C(O)CCCN1C(=O)/C(=C/C=C/c2ccccc2)SC1=S`, 0.2%.
On to `CCOc1ccccc1NC(=O)c1c(-c2c(Cl)cccc2Cl)noc1C`, for which the displacement amounted to 2.8%.
Under `CCC(=O)Nc1sc2c(c1C(=O)Nc1cccc3ccccc13)CCC(C)C2` (stereo not drawn) stands 7.8%.
Under `COC(=O)C1=C(C)N(C)C(C)=C(C(=O)OC)C1c1cc([N+](=O)[O-])ccc1Cl` stands -5.8%.
